Measured values published in the RNAGym collection of RNA variant scans (doi:10.7554/elife.90254).
The source gives no read counts; variants with many changes may rest on few reads.

B1: OR4K15 (parent)
chain: GUUAACGGUCAUAGGCCAUGGAAACUAGGAGCACCAUUUCGCUGCCAGUGAAGAAAUGAACAAAGAAAAUCUGGGCCAGGCAGGCAUCAAAAGAAAUAGUCUUGCGCUCAACCAGAAAGUCUGUAAUCAUUUUAAGGGUA

Variants of: B1
Assay: self-cleavage, relative activity (ratio to wild type); higher = more cleavage; in vitro, sequencing; the parent is a self-cleaving ribozyme

| Variant | self-cleavage |
| --- | --- |
| A5C U9G A67G | 0.37 |
| U3C A56G U108C | 0.02 |
| U3C A11G A60G A94G | 1.02 |
| U2C U19C U102C A117G | 2.02 |
| A5G A13G U108A | 0.24 |
| U3G U19A A60G A111G U124A | 0.01 |
| A4G A89U A94G | 0.78 |
| A5C C17A A78G | 0.6 |
| A5G A11G U37C U57C | 0.55 |
| U3A U49C A116G U122C | 0.38 |
| U3C U43A A55G | 1 |
| A4G U87C A92G U127C | 1.05 |
| U2C U57C A98G U122C | 0.97 |
| A4G U9A A24G U131C A140G | 0.96 |
| A4G A11G U38C A52G A56G A66G A90G A95G | 1.23 |
| U3C A55G U72A | 0.05 |
| A4G A95G A129U | 0.65 |
| U2G A27U G73A A118G U127C | 0 |
| U2C U38C A51G U130C | 1.47 |
| A5C G44A U49C A125C | 1.02 |
| A5G A23G U49C A82U A95G U124C U139A | 0.3 |
| A4G A60G C85U | 0.72 |
| U3C A36G A56G A60G A89G | 1 |
| U2C U38G A47G | 0.59 |

| Variant | self-cleavage |
| --- | --- |
| U3C A36U A89U A96G | 1.36 |
| U3C A51C C101U | 0.14 |
| U2C U9C U102C A114G | 0.9 |
| U3C A22G A30G U103C | 0.38 |
| U3C U43C A94G | 0.4 |
| A5G A23G C32U G48U A98G | 0.32 |
| U3C A114G A116G | 0.13 |
| U3C U37C A116G | 0.57 |
| A4G U49C A52U A59G A134G | 0.89 |
| U3C A23G A63G U87C | 1.64 |
| U2C U39A U100C | 1.36 |
| A5G A23G A66G U100C | 1.58 |
| A5C G7A U9C U49C A64G | 2.21 |
| A5C A52G A68G | 0.88 |
| A4G A30G A33C U72C U120C A125G U132C | 0.01 |
| A5G A23G A118G | 0.81 |
| U2G A86U A89G A114U | 0.38 |
| A4G G31C A51U A59G | 1.67 |
| A5G A24G A60G | 0.29 |
| U3C A13C A59G | 0.5 |
| U2C U9C U108C A116U U120A | 0 |
| A5G A13G U19C A30G U38C U49C | 0.49 |
| A4G A63G A92G | 0.94 |
| U2C U49C A64G A67G U130C | 0.29 |

| Variant | self-cleavage |
| --- | --- |
| A5G A22G U87C | 0.5 |
| A5G A23U A95G A111G | 0.06 |
| U3C A11G U43C A129G | 0.76 |
| U3C A11C U131C | 0.81 |
| U2C U9C A11U U108A | 0.08 |
| U3C A62G G104A | 0.01 |
| U2C U43C A55G U100C U132C | 2.65 |
| U2C U39C G84U | 0.78 |
| U3C A59G A69G A140G | 0.49 |
| A4G G15A C105U U120A U127C U132A U139C | 0.06 |
| A4G C25U A62G A91U | 1.65 |
| U2C U49C U122A | 1.77 |
| U3C A11G G53A | 0.94 |
| U3A G31A G80A A114G | 0.03 |
| A4G A18G C105A | 0.07 |
| U3C A11G A96G | 0.4 |
| U3C U100C U122C U130C | 1.57 |
| U3A A91G A116G | 0.23 |
| U3A A64G U108C A110G | 0.01 |
| A4G C45A A126G | 0.93 |
| U2C U108A A117G U133A | 0.01 |
| A5C A55G U57C A95G A116G | 0.79 |
| U3C A47G A92G | 2.05 |
| A4G U38C A89U U120C | 0.73 |

| Variant | self-cleavage |
| --- | --- |
| A4G A90G U132A | 0.89 |
| A4G A13U A117G | 0.37 |
| U3A A5G A62U A92U A114U A118G A134G | 0.01 |
| A4G A18U U57C A60G | 0.63 |
| A4G G74C A94U | 0.32 |
| A4G A62G A114G | 1 |
| U3C U57C U132C | 0.91 |
| A4G G14A U37A U39A A68G A95G U122C | 1.66 |
| A5G A22G A116G | 1.04 |
| A4G U39A U130C | 1.72 |
| A4C U9C A63G A68G U103A | 1.18 |
| A5G A11G A36C A118G | 0.47 |
| A4G A96G U100C | 0.68 |
| A4G A13G A69G | 0.99 |
| U3C A24G A55G A64G U108C C109A A125G U127C | 0 |
| U3C A69G A90G | 0.99 |
| A4G U19C U87C A94U A117G | 1.14 |
| A4G A78U A86G A96G | 0.11 |
| A4G A54G A56G A66G A78G G106A U127C A134U | 0.02 |
| U3A A47G U49C A114U | 0.04 |
| U3C A67G A95G A140G | 1.68 |
| U3A A27U A30G U49C A59G | 1.17 |
| U3A A23G A55G A117U A118G | 0.6 |
| A5G A23G U57G | 0.97 |

| Variant | self-cleavage |
| --- | --- |
| U3C A22G U127C A129U | 0.72 |
| U2C U100C A116G | 1.38 |
| U3A U38A A55G U131C | 0.76 |
| U3G A24G U72C | 0.41 |
| U3C U37C A47G | 0.98 |
| A4G A13G U49C | 0.75 |
| A4G A55G A64G A66U A90U | 0.86 |
| A4G A23G A68G C77U | 0.79 |
| A5C A33G A51G A59G A92U | 1.28 |
| A4G A11G A54G A64G A69G | 0.54 |
| U3C U26C A78U A92G U103A | 0.09 |
| A4G U43C U130C A140G | 0.9 |
| U3C A22U A89G A98G U120C U124C | 0.06 |
| A5C A52U A67G A117G | 1.41 |
| U3C U19C U38C A86G | 0.86 |
| U3C A18G U132C | 1.75 |
| A5G A18G A24G | 1.27 |
| U3C A33G A90G G123A | 0.21 |
| A4G A33U A63G | 1.85 |
| U3C C105A U108C U120C U124A U132C | 0 |
| A4G U9C A11U A22G A111G U131G | 0.05 |
| U3C A22G A30G A78G A89C A111G | 0.1 |
| A5G A22G A54G A89U U102A | 0.83 |
| A4G U39A G104A U132C | 0.08 |

| Variant | self-cleavage |
| --- | --- |
| U3A A117G U122A | 1.36 |
| U3A G15A A30G C77U A86G A95G A118G | 1.49 |
| U3C U108A A118G A140U | 0.03 |
| U2C U38C A52G A91G | 0.76 |
| U2C U39C A54G U72C U100C A118G | 0.15 |
| U2G A4G U39A | 0.46 |
| A5G A22G U57C U102C | 0.72 |
| A4G A55U A95G U100C | 1.4 |
| A5C U19A U37C A55G U70A A82U | 0.21 |
| A4G A51G A67G A78G U103C | 0.1 |
| U3G A63G U122C | 1.08 |
| U3C G28U A33U U37C A67G | 1.08 |
| A5C A13U G119A | 1.06 |
| U3A U37C C46G U108C | 0.03 |
| U3C U97C U122C A126G | 0.72 |
| U3C U49C A89C A94G U127C | 1.37 |
| U3C A11G A22G A94G | 1.15 |
| A4G U38C A129G | 1.45 |
| A5G A13U A33U A55G A67G A96G | 1.23 |
| U3G U37C U38C | 0.69 |
| A5G A18G A54G U103C | 0.7 |
| U2G A54G U122C | 0.38 |
| A5G A18U U37C | 0.71 |
| A4G U57C A64U U72C | 0.53 |

| Variant | self-cleavage |
| --- | --- |
| U3C A36G U38C U70A C85U A91G | 0.73 |
| U3C A30G U103C U130A | 0.68 |
| A4G A47G A69G U87C A116U A140G | 0.44 |
| U2C U87C A129G | 1.36 |
| U3A A5C U39C A56G G115U | 0.09 |
| U3C A68C A90G | 1.03 |
| A4G A68G A96G U130G | 0.44 |
| A4G U37C A47G U49A A78G A111G | 0.1 |
| U3C A96G A117G | 1.34 |
| A5C U12C U37C A126U U127C U130C | 0.42 |
| U2C U43C U49C A68G A69G U103G | 0.08 |
| U2C U120C A134G | 0.57 |
| A5C A11G U12A A36G C61G U72C | 0.23 |
| U2C U43A A66G U108C | 0.01 |
| A4G A47G A55G A82G A86G A118U | 0.43 |
| A4G A22G U103C | 1.01 |
| U3A A59G A60G | 1.3 |
| A4G U39C U57A A62G A68G A118U U132A A140G | 0.72 |
| A5C C6A A91G A92G | 1.65 |
| A5C C25U A56G U127C | 0.93 |
| U3A A5G A86U | 1.15 |
| U3G A47G A60U | 0.41 |
| U2C U26C U70C G74A A92G A96C U103A | 0.01 |
